Measurements reported in the supplement of paper PMC3334620.
In all, about 33,000 sequences were measured (“E-score (-0.5 to 0.5)”: median about -0.021, highest 2% from about 0.32 on). The list shows a part of the results.

molecular target: T1, Zap1 (UniProt P47043); assay: PBM E-score (8-mer binding enrichment) (E-score (-0.5 to 0.5)); higher = stronger / more preferred TF binding; most listed sequences are background and not binding sites; details: protein concentration: 200 nM; construct: GST-full length
T1 sequence: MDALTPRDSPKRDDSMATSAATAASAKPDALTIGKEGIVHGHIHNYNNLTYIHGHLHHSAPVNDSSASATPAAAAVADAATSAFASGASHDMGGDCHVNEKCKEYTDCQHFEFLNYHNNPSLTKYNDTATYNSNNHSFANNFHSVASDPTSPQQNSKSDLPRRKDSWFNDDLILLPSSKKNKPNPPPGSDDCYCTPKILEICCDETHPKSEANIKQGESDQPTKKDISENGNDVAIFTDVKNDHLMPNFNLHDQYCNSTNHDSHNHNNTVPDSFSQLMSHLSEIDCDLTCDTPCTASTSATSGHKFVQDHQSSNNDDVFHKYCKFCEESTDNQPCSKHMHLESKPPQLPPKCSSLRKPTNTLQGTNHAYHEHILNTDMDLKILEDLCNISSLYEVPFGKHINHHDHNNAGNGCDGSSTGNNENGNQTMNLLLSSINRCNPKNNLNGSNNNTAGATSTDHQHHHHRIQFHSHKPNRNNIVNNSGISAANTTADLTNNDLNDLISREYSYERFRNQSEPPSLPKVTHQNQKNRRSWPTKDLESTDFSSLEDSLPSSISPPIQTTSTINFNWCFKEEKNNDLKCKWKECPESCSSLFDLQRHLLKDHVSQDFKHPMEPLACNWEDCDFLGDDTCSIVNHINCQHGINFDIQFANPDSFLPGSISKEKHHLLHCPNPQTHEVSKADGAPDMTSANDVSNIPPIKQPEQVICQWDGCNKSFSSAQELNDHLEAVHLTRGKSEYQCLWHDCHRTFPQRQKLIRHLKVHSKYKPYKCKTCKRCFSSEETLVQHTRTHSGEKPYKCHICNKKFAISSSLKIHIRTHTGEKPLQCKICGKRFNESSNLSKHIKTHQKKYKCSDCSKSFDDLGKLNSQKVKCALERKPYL
Method in brief: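 Universal all-10-mer Agilent arrays, fresh or stripped once, were converted to double-stranded form by primer extension. GST-tagged yeast transcription factors from PURExpress in vitro transcription/translation, full-length or DNA-binding domain only, were applied at about 100-200 nM and detected with fluorescent anti-GST. After masliner normalisation, the Universal PBM Analysis Suite scored each ungapped eight-base word together with its reverse complement by E-score.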

Sequence	PBM E-score
GTCTGGAA	-0.0756
AAGGAGCG	-0.342
AAGACGTG	-0.212
GCATAGTA	0.00036
AGATTGAT	-0.0444
GCCGTCTA	-0.096
CATGTTGA	0.128
CCATGCTA	-0.245
ATCTGTCG	0.00666
TCTTCAAA	0.09
ATCCCTTA	0.0364
CACACCTG	-0.0111
ATAATGAG	0.0767
GCCTACCA	0.0287
AGGCACGG	-0.156
CTCAGTTC	-0.0178
AAACTGAT	-0.111
AAGTCTTA	-0.192
GTAACAAC	0.234
GGCGTGCA	-0.102
GCTAACAA	0.0453
ACCATAGA	0.141
CGTCGATC	-0.0363
CTCATCGC	-0.0872
GTGCATGA	-0.164

Sequence	PBM E-score
CTAACAAA	0.149
TACACACA	0.212
AACCAGTA	0.164
TCCCCGGA	-0.116
GAACCGCC	-0.0824
CTAGTTTC	0.0706
CAGGGGAA	-0.0896
CGTTCGCC	-0.204
CGTAAGGC	-0.187
ACTTGTAG	-0.0628
GACTTAGC	-0.317
ACAGTGCC	-0.156
ACCTCGGC	0.265
GAAAATTC	-0.0176
TCCTCGAA	0.0949
ATCCGCAC	0.0827
CACAATCA	-0.121
GGATACAC	-0.101
ATCTTGCC	0.0296
AGACGCAT	-0.172
CCATAAAG	0.277
ACTGACTG	-0.214
TAATACTA	0.252
AACGGACA	0.0583
CCTAATGC	0.0581

Sequence	PBM E-score
ACGGAGCC	-0.228
AGGCGTAC	-0.179
ATCTAAAA	0.066
CTGATAAC	0.22
AATTTTTC	0.0448
CGCACTCC	-0.231
ACCCGAAT	0.254
ATTATGCC	0.0789
AGCTACCC	0.268
CAGACATG	-0.22
CGACCGTC	-0.143
ACAACCGA	0.234
AATTCACT	-0.00481
AGCGCGCG	0.126
AAACCTCG	0.119
ACAGTCCT	0.0137
ATTGAAGA	-0.0628
ATCCTCAC	0.0272
AGTGAGAA	0.0644
AGTACCAT	0.127
GCTCGCTA	-0.269
ATAGGAGG	-0.248
TGGAATAA	0.148
CGGTATCC	0.107
ACCACACT	0.0936

Sequence	PBM E-score
TTACCCAA	0.263
ATAAATAT	0.158
CTGAGGGC	-0.236
TAGTGCGA	0.0523
CCCTCGCG	0.188
TAGCTTGA	-0.16
ATAATTGA	0.152
GACGAAGA	-0.139
ATCCCTCC	-0.146
CGTGTAAC	0.119
TCGCACCA	-0.0796
GAGATTAC	-0.001
CGCACGGA	-0.0935
CGGTCGCC	-0.129
CTACACCC	0.163
GCGGCCAC	0.104
ATGAATGG	0.203
CGCAATTC	-0.0164
ACGCGTAA	0.0956
AGGCTCAA	-0.361
ACCCGGAT	0.0925
CGGACCAG	0.0216
ACACGGCG	-0.0492
CAAAGCGC	-0.0526
ATCCCGCC	-0.019

Sequence	PBM E-score
ACCACAGG	0.0993
GGCTATAA	0.0601
AGATAGAT	-0.134
ATCTCACG	-0.234
ATCCTTAG	-0.192
AACCTCAT	0.248
GCAACAGA	-0.0265
GTATACGA	-0.0741
AATGAACA	0.151
CAAAAGGC	0.142
TTAAACAA	0.164
CATCCGGG	0.146
CATTTTCC	0.0529
GGCACGCC	-0.288
ATGTATAC	-0.033
CATTGATC	0.0776
GAACTTTA	-0.025
GACGAGCC	-0.127
CGGGCCTA	-0.0887
CGGCCACA	0.103
GCATGCTA	-0.0627
ACGACCCA	0.2
AACCGCAA	0.277
GTCTCTAA	0.0193
ACACAGTC	0.033

Sequence	PBM E-score
CCGTCTAG	-0.147
CCAAAGCC	-0.202
CTTTCTCC	-0.0469
CTAATCAC	0.157
CTGATGCC	-0.222
ACTACATA	0.113
GCCCTAAC	0.111
AAGGACTG	-0.056
GTTCCCGA	-0.0317
TAGCTATA	-0.0625
CTCATGGC	0.00095
CTCACCAA	0.123
ACGTGCGA	-0.245
ATGGAATC	0.00834
CAGCACCC	0.0359
GCTGGCAC	-0.281
ATTTGTCC	-0.0674
ATCAAGAG	0.121
ATTGGACC	-0.0136
CCTCAGCC	-0.157
GGTCAACC	0.2
GAGAGCAA	-0.227
AGCTTTAA	0.137
GAATCGTA	-0.134
GCTAAACC	-0.0728

Sequence	PBM E-score
AGATTACA	-0.0848
ACTAAGAC	0.0511
GTTCGCGA	0.0574
GAGCCGCC	-0.132
CTGTCCCA	-0.231
CTCGTCAA	-0.253
ACCGAGAC	-0.0569
AGTTATAC	0.104
GCATGTCA	-0.201
CGTCGAAA	0.0714
GCTTCAAC	0.00654
GGCCGAAC	0.0464
CCCTCCGG	0.168
AAATAACC	0.42
AATTTTGG	0.155
CCAAAGAG	0.101
TCGTATAA	0.0885
GAGGTGAA	0.0856
ACGAGTAC	-0.0623
CAACCGTG	0.129
CCCACATC	-0.0026
AGAGGAGG	-0.176
